Test results from PubChem BioAssay AID485344 (National Center for Advancing Translational Sciences (NCATS), 2010).
Where “and” joins values, the source holds several entries; their conditions need not be identical. Equal entries are not always repeated. Among all 340,000 compounds or so, about 6,900 (2%) were called active. Cut-off read from the data, not from the text of the source: active = inhibition above about 30%; inactive = below that, where a call was filed. Only a part is listed here, and it is no random draw. The source gives no active or inactive call for entries shown without one.

The compounds below were run against D(2) dopamine receptor (Homo sapiens) (UniProt P14416) (assay: HTS Assay for Allosteric Antagonists of the Human D2 Dopamine Receptor: Primary Screen for Antagonists). Details: HEK293 TREx D2 cells, calcium flux, dopamine EC80; at 10 µM; stronger effect = higher value.
Summary of the method: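 Measurement of antagonist activity uses fluorescent calcium dye in inducible HEK293 T-REx D2 cells: 10 s baseline, compound addition with 180 s read, EC80 dopamine addition with a further 180 s read.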
Note: 0% is about no effect.

UniProt P14416, sequence (P14416 whole entry, looked up): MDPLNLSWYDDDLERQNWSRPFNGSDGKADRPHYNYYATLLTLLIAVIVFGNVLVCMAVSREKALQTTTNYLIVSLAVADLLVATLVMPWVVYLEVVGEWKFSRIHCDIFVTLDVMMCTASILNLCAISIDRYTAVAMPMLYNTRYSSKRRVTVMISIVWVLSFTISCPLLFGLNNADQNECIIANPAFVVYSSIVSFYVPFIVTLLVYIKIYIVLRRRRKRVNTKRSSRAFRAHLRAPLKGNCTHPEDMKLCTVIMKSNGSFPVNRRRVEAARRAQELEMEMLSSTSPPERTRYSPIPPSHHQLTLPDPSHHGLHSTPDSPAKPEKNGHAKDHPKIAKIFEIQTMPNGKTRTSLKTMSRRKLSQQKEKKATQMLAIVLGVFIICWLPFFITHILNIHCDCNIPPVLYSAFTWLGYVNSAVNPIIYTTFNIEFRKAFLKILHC

Going from `O=C(CSc1nc2c([nH]c3ccccc32)c(=O)n1-c1cccc(Cl)c1)N1CCc2ccccc21` to `Cc1cccc(-n2c(=O)c3ccccc3n(Cc3ccccc3C#N)c2=O)c1`, the inhibition falls from 14.7% to 8.87%.

Going from `COc1cccc(Cc2nc3ccccc3nc2SCC(=O)N2CCCCC2C)c1` (stereo unspecified) to `COc1cccc(N2CCN(C(=O)c3ccc(CS(=O)c4cccc(Cl)c4)o3)CC2)c1` (stereo unspecified), the inhibition falls from 5.81% to -2.47%.

Compared with `Cc1ccc2nc(NCc3ccccc3Cl)c3nnnn3c2c1`, `COc1ccc(NC(=O)c2nc(SCc3ccccc3F)ncc2Cl)cc1` is higher in inhibition: -16.1% for the first, 5.94% for the second.

Compared with `COc1ccc(Cl)cc1NC(=O)c1cc(S(=O)(=O)N2CCc3ccccc32)cn1C`, `COc1ccc(C(CC(=O)NCc2ccc(Cl)cc2)N2Cc3ccccc3C2=O)cc1OC` (stereo unspecified) is lower in inhibition: 13% for the first, 3.91% for the second.

Compared with `COc1cc2c(C(=O)N3CCN(c4cccc(C)c4)C(C)C3)cn(CC(C)C)c(=O)c2cc1OC` (stereo unspecified), `CCCC(=O)N1CCc2cc(OC)c(OC)cc2C1COc1ccc(C(=O)OC)cc1` (stereo unspecified) is higher in inhibition: 10.1% for the first, 22.2% for the second.

Compared with `Cc1nn(CCC(=O)NC(C)C)c(=O)c2nn(-c3ccccc3)c(C)c12`, `Cc1ccc(C)c(NC(=O)CCc2c(C)n(C)c3cc(-c4ccccc4C)nn3c2=O)c1` is lower in inhibition: -0.156% for the first, -21.3% for the second.

Going from `Cc1ccc(NC(=O)CCS(=O)(=O)c2cccc3nonc23)c(C)c1` to `Cc1ccc(OCC(=O)Nc2ccc(S(=O)(=O)Nc3cc(C)on3)cc2)c(Br)c1`, the inhibition rises from -12.5% to 17.4%.

Compared with `CC(C)c1ccc(C2=CC(c3cccc(Cl)c3)n3ncnc3N2)cc1` (stereo unspecified), `Cn1c(=O)c2c(-c3ccc(Br)cc3)n(Cc3ccc(F)cc3)cc2n(C)c1=O` is lower in inhibition: 10.1% for the first, 1.55% for the second.

Compared with `CCOc1ccc(NC(=O)Cn2c(CCC(=O)O)ccc2-c2ccc(Cl)cc2)cc1`, `COC(=O)c1sc(-c2ccccc2)cc1NC(=O)Nc1ccc(F)cc1` is lower in inhibition: 15.6% for the first, 2.97% for the second.

First: CCCN1C(C(=O)c2ccccc2)=C(OC(=O)c2ccc(F)cc2)c2ccccc2S1(=O)=O
Second: CC(NC(=O)c1ccc2nc(CCc3ccccc3)oc2c1)c1ccccc1 (stereo unspecified)
The inhibition of the first is higher: 11.7% for the first, 9.03% for the second.

First: O=C(NCCc1ccc(Cl)cc1)c1ccc2c(c1)N(Cc1ccccc1)CCS2
Second: O=C(NCCn1cc(SCc2ccc(Br)cc2)c2ccccc21)c1cccs1
The inhibition of the first is lower: 0.257% for the first, 8.5% for the second.

First: COc1ccc(NC(=O)CN(C)S(=O)(=O)c2ccc3[nH]c4c(c3c2)CCCC4)cc1OC
Second: Cc1ccc2oc(C(=O)Nc3ccc(S(=O)(=O)N(C)Cc4ccccc4)cc3)cc(=O)c2c1
The inhibition of the first is higher: 12.2% for the first, 0.445% for the second.

First: CC(C)Oc1ccc(CNC(=O)c2ccc3nc(SCc4ccc(F)cc4)n(C)c3c2)cc1
Second: COc1ccc(-c2nc3cc(C)ccn3c2NC(=O)c2cccc(F)c2)cc1
The inhibition of the first is higher: 3.2% for the first, -9.36% for the second.

Going from `Cc1ccccc1Cn1c(C)c(CNCc2ccccc2)c(C(=O)O)c1C` to `CCOc1ccccc1-c1nc(Cn2c(=O)cc(C)c3c(C)nn(-c4ccccc4)c32)c(C)o1`, the inhibition rises from -0.933% to 6.05%.

Compared with `CN(C)S(=O)(=O)Nc1ccc(-c2cn3ccsc3n2)cc1`, `Cc1ccn2c(Nc3ccc4c(c3)OCO4)c(-c3ccc(O)cc3)nc2c1` is lower in inhibition: 0.319% for the first, -5.32% for the second.

Going from `CCc1ccccc1NC(=O)C1CCN(c2nn3c(=O)cc(C)nc3s2)CC1` to `CCc1nc(-c2cc(S(=O)(=O)N3CCN(c4ccccc4)CC3)ccc2OC)no1`, the inhibition falls from -0.0515% to -8.88%.

First: CCc1ccc(-n2c(=O)c3c4c(sc3n(CC(=O)NCCCOC)c2=O)CCC4)cc1
Second: CCc1nn(CC(=O)NCCCN(CC)CC)c(=O)c2cc3occc3n12
The inhibition of the first is lower: 5.2% for the first, 5.67% for the second.

First: Cc1cccc(Cc2cnc(NC(=O)c3ccc4c(c3)CC(c3ccccc3)OC4=O)s2)c1 (stereo unspecified)
Second: Cn1c(SCC(=O)Nc2nc3ccccc3s2)ncc(C(=O)Nc2ccccc2)c1=O
The inhibition of the first is lower: 9.73% for the first, 15.7% for the second.

First: Cc1ccc(-n2nc(C(=O)N3CCN(c4ccccc4)CC3)c(=O)n(C)c2=O)cc1
Second: COc1cccc(CNC(=O)CN2C(=O)N(c3ccc(C)cc3C)S(=O)(=O)c3ccccc32)c1OC
The inhibition of the first is higher: 11.2% for the first, -4.56% for the second.

First: COC(=O)c1ccccc1NC(=O)c1nc(S(=O)(=O)Cc2ccccc2F)ncc1Cl
Second: O=C(O)c1c(-c2ccccc2)oc2ccc(OCc3c(F)cccc3Cl)cc12
The inhibition of the first is lower: -11.8% for the first, -1.42% for the second.

First: CCCCOc1ccc(S(=O)(=O)n2nc(C)c(S(=O)(=O)N3CCC(C)CC3)c2C)cc1
Second: Cc1cc(C)cc(NC(=O)C2CCCN2S(=O)(=O)c2ccc3nc(-c4ccccc4)[nH]c3c2)c1 (stereo unspecified)
The inhibition of the first is higher: 23.7% for the first, -1.83% for the second.

Going from `CCCOC(=O)C(C)n1nnc2sc(-c3ccccc3)cc2c1=O` (stereo unspecified) to `CCC1Oc2ccccc2N(CC(=O)NCc2cc(OC)ccc2OC)C1=O` (stereo unspecified), the inhibition falls from 14.3% to -2.45%.

First: O=C(CSc1nc(-c2ccccc2F)nc2cc(=O)[nH]n12)Nc1cccc(C(F)(F)F)c1
Second: COc1cccc(C(=O)Nc2cccc(-c3nc4ncccn4c3C)c2)c1
The inhibition of the first is lower: -7.38% for the first, 7.88% for the second.

Going from `CCN(CC)C(=O)Cn1c(=O)n(CC2CCC(C(=O)NC)CC2)c(=O)c2sccc21` (stereo unspecified) to `O=C1COc2cc(S(=O)(=O)CCC(=O)NC3CCCCC3)c(Cl)cc2N1`, the inhibition rises from -7.62% to 0.467%.

First: COc1ccc(CCNC(=O)C2CCN(Cc3nc(-c4ccc(OC)c(OC)c4)oc3C)CC2)cc1OC
Second: COc1ccc(C)cc1-n1cnc2cc(C(=O)NC3CCCCCC3)ccc21
The inhibition of the first is higher: 21% for the first, 13% for the second.

Going from `Cc1ccc(/C=C(\C#N)C(=O)Nc2cccc(Cl)c2)o1` to `Cc1ccc2onc(CNC(=O)NCc3ccc(Cl)cc3)c2c1`, the inhibition falls from -0.0624% to -3.77%.

For `Cc1ccc(Oc2nc(-c3ccccc3)ncc2S(=O)(=O)c2ccc(C)cc2)cc1`, the inhibition was active: 40.5%.
With `Cc1ccc(C(NC(N)=O)c2ccccc2)cc1` (stereo unspecified) the inhibition was active: 39.8%.
For `COc1cccc(CNS(=O)(=O)c2cc(Br)cc3c2N(C(C)=O)C(C)C3)c1` (stereo unspecified), the inhibition was active: 39.9% and -17.4%.
`CCOc1ccccc1C(=O)NC1CC2CCCC(C1)N2Cc1ccccc1` (stereo unspecified) was tested, and the inhibition was active: 92.5%.
For `Cc1cc2ccccc2c(=O)n1CC(=O)NCC(=O)N1CCN(c2ccccc2)CC1`, the inhibition was active: 64%.
In the case of `O=C(CSC1=NCCN1)Nc1cccc([N+](=O)[O-])c1`, the inhibition is reported as active: 49.1%.
`Cc1cc(C)cc(C(=O)Nc2ccc3[nH]c(=O)[nH]c3c2)c1` was tested, and the inhibition was active: 30.2%.
With `CCCCC(O)CN1CCC(c2ccccc2)CC1` (stereo unspecified) the inhibition was active: 48.3%.
With `CC1CCCCN1S(=O)(=O)c1ccc(C(=O)Nc2sccc2C(N)=O)cc1` (stereo unspecified) the inhibition was active: 31.4%.
